The full ranking holds about 33,000 sequences; the median of “E-score (-0.5 to 0.5)” is about -0.016, and the highest 2% start at about 0.32. The list shows a part of the results.
target: T1, Stp1 (UniProt B3LFK1); test: PBM E-score (8-mer binding enrichment) (E-score (-0.5 to 0.5)); higher = stronger / more preferred TF binding; most listed sequences are background and not binding sites; details: protein concentration: 200 nM; construct: GST-full length
T1 sequence: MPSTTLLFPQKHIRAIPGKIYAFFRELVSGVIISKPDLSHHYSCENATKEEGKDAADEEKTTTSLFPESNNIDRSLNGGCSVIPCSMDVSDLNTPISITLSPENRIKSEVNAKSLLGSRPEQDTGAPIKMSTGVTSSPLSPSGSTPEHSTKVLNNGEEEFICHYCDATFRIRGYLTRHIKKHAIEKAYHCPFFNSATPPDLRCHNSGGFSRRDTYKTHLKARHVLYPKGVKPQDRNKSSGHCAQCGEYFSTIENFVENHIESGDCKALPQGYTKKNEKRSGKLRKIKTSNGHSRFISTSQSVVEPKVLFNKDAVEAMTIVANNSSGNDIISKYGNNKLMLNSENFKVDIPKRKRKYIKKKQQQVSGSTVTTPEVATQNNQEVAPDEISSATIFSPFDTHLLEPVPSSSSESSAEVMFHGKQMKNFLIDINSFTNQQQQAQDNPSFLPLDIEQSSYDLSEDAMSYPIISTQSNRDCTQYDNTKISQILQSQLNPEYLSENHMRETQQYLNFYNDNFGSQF
Procedure, shortened: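 Bound GST-tagged yeast transcription factors, applied at about 100-200 nM to double-stranded universal all-10-mer Agilent arrays, were detected with fluorescent anti-GST. Scans were normalised with masliner. A modified Wilcoxon-Mann-Whitney statistic, the E-score, was assigned to each ungapped eight-base word pooled with its reverse complement by the Universal PBM Analysis Suite.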

| Sequence | PBM E-score |
| --- | --- |
| TACTGTAA | 0.021 |
| CGCCATGA | 0.0892 |
| ATTGTCTC | 0.0966 |
| GGGACCCA | -0.164 |
| ACCCTCAA | -0.276 |
| ATATCAGG | 0.0288 |
| AATTTCCG | 0.135 |
| ATCCTTGA | -0.0743 |
| CGAGATGC | -0.0262 |
| CACGCGCA | 0.0446 |
| AATAGCTG | -0.0978 |
| CCTCCGCC | -0.167 |
| GGTGGGAA | -0.106 |
| ATTTCAAA | 0.134 |
| AAGTGTAG | -0.00307 |
| CGGTCCGA | -0.132 |
| ACTCTTAC | -0.0417 |
| ACTAGGAG | -0.202 |
| AGAAGCGC | 0.189 |
| AATTGAAG | 0.0889 |
| TAGAAAGA | -0.0995 |
| AATAGGAG | -0.0266 |
| GACGCAGC | -0.0122 |
| ATCTTTCA | -0.00864 |
| AGTCTTGC | 0.0474 |

| Sequence | PBM E-score |
| --- | --- |
| AGTCCAAC | -0.192 |
| GGGGTTCA | -0.288 |
| AGATTTGA | 0.0294 |
| GCGCCCTA | 0.342 |
| AATAAGTA | 0.0273 |
| CCGGTCGC | 0.0593 |
| CCTGAAAA | -0.0483 |
| ATAGTGAT | -0.0735 |
| GCCCAGAC | -0.352 |
| ACAAGCAC | 0.0508 |
| GTGTACGA | 0.204 |
| AAAAAGTG | 0.204 |
| CTGGTTCA | -0.185 |
| CATACCCA | 0.0235 |
| AGGGGACG | -0.3 |
| AAGCCCTT | -0.154 |
| GCCGTGGA | 0.402 |
| CATTTATA | 0.0707 |
| CGACACTA | -0.175 |
| AGAACAAC | -0.0648 |
| TACCGGCA | -0.0665 |
| CACCGGTC | -0.342 |
| AGGGTTGA | -0.321 |
| AAATCCTT | -0.0347 |
| CAGTAGGA | 0.067 |

| Sequence | PBM E-score |
| --- | --- |
| ATAACAGA | 0.138 |
| AACAAAAC | 0.179 |
| ACCGACTG | -0.213 |
| CACACGCG | 0.227 |
| CCTTCAGA | -0.14 |
| CCGGACGA | -0.0479 |
| CATGTCCG | -0.137 |
| AGCGCTAG | -0.123 |
| CTACCTCA | -0.152 |
| ACGCAAGG | 0.187 |
| AGACCGGG | -0.185 |
| CTCGAATC | -0.205 |
| CCCGGGCA | 0.0386 |
| ACACAAGA | 0.0286 |
| AGAACACC | -0.147 |
| CTACATTA | 0.033 |
| CACAAACA | 0.172 |
| ATCTAATG | 0.0142 |
| CCATTAGA | -0.237 |
| AGAAGTCT | -0.207 |
| ATGTTAGG | 0.00885 |
| AATCTTCC | -0.243 |
| GAGATTCC | -0.0223 |
| AAACTTAA | 0.235 |
| CCCGTTCC | -0.00751 |

| Sequence | PBM E-score |
| --- | --- |
| AGTTAGGG | -0.2 |
| GAGTCCCA | -0.134 |
| ATTACGAC | 0.0495 |
| ACGGCCCG | 0.275 |
| AATTGTAC | 0.212 |
| ACAAGAAT | 0.159 |
| CAGAGCAG | -0.0998 |
| ACTTCACA | -0.0788 |
| CCCAACGC | -0.0865 |
| CTTAAGCC | 0.118 |
| GAGTGCGA | -0.046 |
| CAACATAC | 0.0911 |
| GGTTTAAC | 0.0879 |
| GCATCCAC | -0.0284 |
| CTGGGAAC | 0.0375 |
| ACTTTGGA | 0.0914 |
| GACTTAAA | -0.131 |
| ACTGTTTG | -0.00198 |
| AGTATACA | 0.0474 |
| ATGCGTTG | 0.00857 |
| ACTCTCTC | -0.083 |
| ATATAACA | 0.141 |
| CTATGAAA | -0.117 |
| ATTGATAG | -0.0347 |
| ACACTTCT | -0.156 |

| Sequence | PBM E-score |
| --- | --- |
| AGGGCGGC | 0.14 |
| CAGCAGTC | -0.259 |
| CCATATAC | 0.135 |
| GCCAGAAA | 0.00732 |
| CTGTGGTA | 0.0507 |
| AACCTTAC | 0.129 |
| CGCTGAGA | 0.0916 |
| TGCGTACA | 0.0609 |
| TACAACAA | 0.108 |
| ACTGTCCG | -0.147 |
| GTCTGTTA | 0.0512 |
| AATCTACC | -0.0419 |
| GTTCATAA | 0.032 |
| GACACCTA | -0.084 |
| CCAAGGAG | -0.142 |
| GCGATCTA | 0.138 |
| CGTGTGAA | 0.0817 |
| CTGGACTA | -0.185 |
| CAGGTTCA | -0.211 |
| ATCGTGCA | 0.0249 |
| AGCCATAT | 0.125 |
| ATCGAGAC | -0.121 |
| CCACGCCG | 0.34 |
| AATGGTTA | 0.0181 |
| CAGCGATA | -0.156 |

| Sequence | PBM E-score |
| --- | --- |
| GATCCAGA | -0.0161 |
| AGATAATC | -0.0139 |
| TCCATAAA | 0.0328 |
| CGATCCTC | -0.285 |
| CCCTATAA | -0.236 |
| ACGTACTC | -0.0171 |
| GTCTCCAC | -0.0282 |
| CTCTGGTC | -0.00137 |
| AAGGCAGA | -0.164 |
| GACACAGA | 0.0869 |
| AAGGGACT | -0.266 |
| CAGCCTAA | -0.107 |
| AAGACTAT | 0.04 |
| AAGATTCA | 0.0167 |
| CCGCTCAG | 0.165 |
| CCATCGAG | 0.154 |
| TATTAATA | -0.106 |
| CCAACTAC | -0.0511 |
| CAACACGG | 0.237 |
| CTTCGCGC | 0.0799 |
| CTCCTCGA | -0.128 |
| ACGGACAC | 0.218 |
| ACCGAGGG | -0.404 |
| AGGGCTCG | -0.0876 |
| CCTCACCA | -0.0872 |

| Sequence | PBM E-score |
| --- | --- |
| AAGAAATG | 0.131 |
| AAGTGGTA | -0.14 |
| ATTTTTGA | 0.14 |
| GATCTGAC | -0.0927 |
| CGATTAAA | 0.165 |
| ATTTGGTA | 0.144 |
| CTACTCTA | -0.0312 |
| AGCGCGGC | 0.402 |
| CGGGTAAA | 0.114 |
| CCCGGGTC | -0.196 |
| CATCCTCG | 0.0185 |
| GATTAATC | -0.126 |
| CTATTGAG | -0.0298 |
| AGCGTTCC | 0.0306 |
| ACTTAATG | 0.107 |
| CTGGTCCC | -0.428 |
| CCAACGAG | -0.251 |
| AACTATTA | 0.0551 |
| ATATGCAA | 0.163 |
| ATATTATG | 0.262 |
| GTCGCTAA | 0.104 |
| TTTCGAAA | 0.229 |

— the supplement of paper PMC3334620
